Data as given in PubChem BioAssay AID1671188 (National Center for Advancing Translational Sciences (NCATS), 2021).
Where “and” joins values, the source holds several entries; their conditions need not be identical. Equal entries are not always repeated. Hit rate of the full screen: of about 100,000 compounds, about 250 (0.25%) were called active. Inconclusive means that the source gave no clear call. Such entries were picked first, then a sample of the others. The call rests on the fitted dose curve; in most records, active means well fitted inhibition curve with a large enough effect; inconclusive means small, poorly fitted or top-dose-only effect; inactive means flat fitted curve, though single readings scatter. Potencies of inconclusive entries are doubtful fits and often do not repeat.

target: Alanine aminotransferase 2 (Homo sapiens) (UniProt Q8TD30); experiment: Primary qHTS assay for inhibitors of Glutamate pyruvate transaminase 2 (GPT2); conditions: Recombinant GPT2, coupled pyruvate oxidase/HRP Amplex Red fluorescence; activity change, negative = inhibition: at 57.7 µM (top of the series) unless noted; series mostly up to 57.7 µM; further: nearly all actives have a fitted effect of over 60% in size
Procedure, shortened: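 GPT2 10ng/uL, a-KG 250uM, L-Ala 2mM, HEPES pH7.5 + 0.0001% Tween; 30 min RT. Then Amplex mix (PO/HRP/ThPP), 30 min RT dark, fluorescence. AOA 50uM used as positive control.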
On the % scale 0 is the no-effect control and ±100 the full control effect; potency means the concentration at half of the fitted maximal effect; tags describe the fitted curve by direction and shape.

Sequence of UniProt Q8TD30 (Q8TD30 whole entry, looked up): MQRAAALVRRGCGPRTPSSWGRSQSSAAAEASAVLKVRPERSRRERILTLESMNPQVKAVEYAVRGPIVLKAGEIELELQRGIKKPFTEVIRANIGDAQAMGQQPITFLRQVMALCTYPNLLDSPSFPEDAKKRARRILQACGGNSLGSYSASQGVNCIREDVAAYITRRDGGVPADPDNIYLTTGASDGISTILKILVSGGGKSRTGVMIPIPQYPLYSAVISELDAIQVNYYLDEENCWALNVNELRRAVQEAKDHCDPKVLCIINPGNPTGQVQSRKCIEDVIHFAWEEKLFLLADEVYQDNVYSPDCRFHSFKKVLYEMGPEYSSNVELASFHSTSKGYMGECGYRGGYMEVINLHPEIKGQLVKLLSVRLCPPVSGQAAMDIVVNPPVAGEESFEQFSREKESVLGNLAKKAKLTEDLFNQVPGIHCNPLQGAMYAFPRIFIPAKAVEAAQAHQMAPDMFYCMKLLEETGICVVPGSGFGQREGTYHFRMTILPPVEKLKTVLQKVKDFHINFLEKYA

| SMILES | Potency | activity change, negative = inhibition | outcome |
| --- | --- | --- | --- |
| CC(=O)c1cc(C(=O)N2CCC(n3nccc3NC(=O)CC(C)C)CC2)cs1 | inconclusive: 6.31 µM [inhibitor, single point] | – | – |
| O=C(NC1CCCN(c2cc(N3CCCC3)ncn2)C1)c1ccccc1 (stereo not drawn) | inconclusive: 39.8 µM [inhibitor, single point] | – | – |
| COC(=O)[C@H]1CN(C(=O)NC(C)C)CCN1C(=O)c1cccnc1 | – | inactive: 1.79% [at 88.5 µM] | – |
| O=C1Nc2ccccc2CNC12CCN(CC1CCCC1)CC2 | inconclusive: 11.2 µM [inhibitor, single point] | – | – |
| O=C(O)c1cc2cccc([N+](=O)[O-])c2[nH]1 | inconclusive: 3.98 µM [inhibitor, partial curve, poor fit] | – | – |
| O=C1[C@H]2CCCN2C(=O)C2C[C@@H](NS(=O)(=O)c3cccs3)CCN12 (stereo partly drawn) | inconclusive: 10 µM [inhibitor, full curve, poor fit] | – | – |
| Cc1ccc(C(N)=O)cc1Nc1nccc(-c2cn(C(C)C)c3cnccc23)n1 | inconclusive: 6.31 µM [inhibitor, single point] | – | – |
| O=C(c1ncoc1C1CC1)N1CCOC(c2ccc(Cl)cc2)C1 (stereo not drawn) | – | inactive: 0.602% | – |
| CC(C)CNc1ccc2c(n1)C(C)(C(=O)NC1CC1)CN(Cc1ccccc1)C2 (stereo not drawn) | – | – | inactive [at 88.5 µM] |
| CCCCN(C)C(=O)c1cc(-c2ccc(C)cc2)cn1CC | inconclusive: 7.94 µM [inhibitor, full curve, poor fit] | – | – |
| O[C@@H]1CO[C@H]2[C@@H]1OC[C@@H]2n1cc(-c2ccccn2)nn1 | inconclusive: 70.8 µM [inhibitor, single point] | – | – |
| CC(=O)N1CCCC(C(=O)N2CCC(c3nc4ncccc4[nH]3)CC2)C1 (stereo not drawn) | inconclusive: 25.1 µM [inhibitor, single point] | – | – |
| COc1ccc(S(=O)(=O)N[C@H]2C[C@@H](c3nc(-c4cnccn4)no3)N(C)C2)cc1 | – | inactive: 0.847% [at 88.5 µM] | – |
| COc1cccc(CN2CCCC(N3CCN(c4cccc(C(F)(F)F)c4)CC3)C2)c1O (stereo not drawn) | – | inactive: -16.7% | – |
| O=C(COc1ccccc1)N1CCC2(CC1)CC(N(C(=O)c1ccccc1)C1CC1)CCO2 (stereo not drawn) | inconclusive: 39.8 µM [inhibitor, single point] | – | – |
| CCc1nc2c(c(-c3ccc(OC)cc3)n1)CCN(Cc1ccc(F)cc1)CC2 | inconclusive: 3.98 µM [inhibitor, full curve, poor fit] | – | – |
| COc1cc(/C=C(\C#N)C(=O)c2ccc(O)c(O)c2)cc(I)c1O | inconclusive: 39.8 µM [inhibitor, single point] | – | – |
| CN1CCc2cc(NC(=O)Nc3cccnc3)ccc21 | inconclusive: 6.31 µM [inhibitor, single point] | – | – |
| COC(=O)[C@@H]1Cc2ncn(C(C)C)c2CN1S(=O)(=O)c1cccc(C(F)(F)F)c1 | inconclusive: 7.08 µM [inhibitor, full curve, poor fit] | – | – |
| Cc1ccccc1CC(=O)N1CCC2(CC1)NC(=O)N(c1cccc(F)c1)N2 | inconclusive: 25.1 µM [inhibitor, single point] | – | – |
| COc1cccc(C(=O)N2CCC3(CCCCO3)CC2)c1 | inconclusive: 10 µM [inhibitor, partial curve, poor fit] | – | – |
| COc1ccc(CNC(=O)C[C@@H]2CCNC[C@@H]2Cc2cc(CN(C)Cc3ccccc3)on2)cc1 | – | – | inactive |

| SMILES | Potency | activity change, negative = inhibition | outcome |
| --- | --- | --- | --- |
| Cc1ccc(-c2c(C(=O)CCl)n(CCCO)c3ncnc(N)c23)cc1 | inconclusive: 25.1 µM [inhibitor, partial curve, poor fit] | – | – |
| O=C1C[C@@H]2CCN(C(=O)Nc3ccc(OC(F)(F)F)cc3)C[C@@H]2CCN1CCN1CCNC1=O | – | inactive: 0.673% | – |
| CCNC(=O)c1noc(-c2cc(C(C)C)c(O)cc2O)c1-c1ccc(CN2CCOCC2)cc1 | inconclusive: 25.1 µM [inhibitor, single point] | – | – |
| COc1ccccc1CCC(=O)N1c2ccccc2CC1c1nc(C2CC2)no1 (stereo not drawn) | – | – | inactive |
| OCC1CN(c2ncccn2)CC12CCN(Cc1c[nH]c3ccccc13)CC2 (stereo not drawn) | inconclusive: 4.47 µM [inhibitor, single point] | – | – |
| Cc1ccc(C(=O)N2CCN(c3cc(C(F)(F)F)ncn3)CC2)c(C)c1 | – | inactive: 4.49% | – |
| Cc1ccc(-c2cc(C(=O)NCc3ccccc3F)c3cnn(C)c3n2)cc1 | – | – | inactive |
| O=C(NCc1cccc(C(F)(F)F)c1)c1ccc2nc(-c3cccnc3)oc2c1 | – | – | inactive |
| CCc1noc(-c2nc(-c3ccc(F)c(F)c3)no2)n1 | – | inactive: -4.24% | – |
| O=C(NCc1ccccc1F)C1CCCCN1Cc1ccc(-c2cccs2)cc1 (stereo not drawn) | – | inactive: -7.11% | – |
| O=C(c1cscn1)N1CCC2(CNS(=O)(=O)c3cnccc3O2)C1 (stereo not drawn) | inconclusive: 6.31 µM [inhibitor, single point] | – | – |
| COC(=O)[C@@H](N)Cc1ccc(O)c(O)c1 | inconclusive: 44.7 µM [inhibitor, partial curve, poor fit] and inconclusive: 8.91 µM [inhibitor, full curve, poor fit] | – | – |
| COc1ccccc1-n1c(=O)c(C(=O)NCc2ccc(F)cc2)nc2cccnc21 | – | – | inactive |
| COCCNC(=O)[C@@H]1C[C@H](Oc2cccnc2)CN1C(=O)CCc1ccccc1 | – | – | inactive |
| Cc1ncsc1C(=O)N1CCCC(CCc2ccc(F)cc2F)C1 (stereo not drawn) | inconclusive: 39.8 µM [inhibitor, single point] | – | – |
| CC(C)CNC(=O)c1ccc2oc(-c3ccccn3)nc2c1 | – | – | inactive [at 88.5 µM] |
| N[C@H]1c2ccccc2C[C@@H]1NC(=O)COc1ccc(Cl)cc1Cl | inconclusive: 35.5 µM [inhibitor, single point] | – | – |
| COc1cccc(CCC(=O)N2[C@@H]3CC[C@H]2CC(NC(=O)c2ccc(F)cc2)C3)c1 (stereo partly drawn) | inconclusive: 39.8 µM [inhibitor, single point] | – | – |
| Cc1cc(C)n(Cc2cc(C(=O)N(C)C(C)c3ccon3)n[nH]2)n1 (stereo not drawn) | – | – | inactive |
| Cc1ccc(C(=O)NC2CC(c3nnc(Cn4cccn4)n3C)C2)s1 (stereo not drawn) | inconclusive: 39.8 µM [inhibitor, partial curve, poor fit] | – | – |
| COCc1ccc2c(c1)c(OC(C)(C)C(=O)NC1CCOCC1)nn2CCC(C)C | inconclusive: 56.2 µM [inhibitor, single point] | – | – |
